Structures can show the parent of a compound that is named as a salt. The list shows a part of the results. The data scatter; read single values as rough. Residues, ends and D or L forms follow the SMILES beside them.
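Further: High-content imaging of ALDEFLUOR-stained cells with Hoechst-labelled nuclei in 384-well plates, triplicate wells, scored as Z-score against 0.1% DMSO vehicle, negative meaning fewer ALDHbr cells.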

This assay has as its system PANC1. The experiment in a line: ALDHbr (CSC) cell proportion score relative to DMSO vehicle (ratio to DMSO); breast (SUM159) / gastric (MKN45) / pancreatic (PANC1) / colon cancer lines; ALDHbr cells have high ALDH activity and are rich in cancer stem cells (CSC); higher = more CSC (ALDHbr) cells remaining. The settings on record: 10 µM; 72 h.
As to `O=C(Oc1cccc2cccnc12)c1ccccc1` [Benzoxiquine], the ALDHbr came out at 1.11.

For `CNCCC(Oc1ccc(C(F)(F)F)cc1)c1ccccc1` (stereo not given) [Fluoxetine hydrochloride], the ALDHbr came out at 1.06.

In the case of `C[C@]12C=CC(=O)C=C1CC[C@H]1[C@@H]3C[C@@H](O)[C@](O)(C(=O)CO)[C@@]3(C)C[C@H](O)[C@@]12F` [Triamcinolone], the ALDHbr stood at 0.588.

Consider `CC(=O)[C@H]1CC[C@H]2[C@@H]3C=CC4=CC(=O)CC[C@@]4(C)[C@@H]3CC[C@]12C` [Dydrogesterone], for which the ALDHbr was 0.663.

Consider `CC(C)Cc1ccc([C@H](C)C(=O)O)cc1` [S-(+)-ibuprofen], for which the ALDHbr is 0.964.

As for `CCCNC(C)C(=O)Nc1c(C)csc1C(=O)OC` (stereo not given) [Articaine hydrochloride], the ALDHbr is 0.954.

As to `CN1CCCC(CC2c3ccccc3Sc3ccccc32)C1` (stereo not given) [Metixene hydrochloride], the ALDHbr is 1.08.

Regarding `COc1ccccc1N1CCN(CC(O)COc2cccc3ccccc23)CC1` (stereo not given) [Naftopidil dihydrochloride], the ALDHbr was 0.928.

Turning to `CC(=O)N(CC(O)CN(C(C)=O)c1c(I)c(C(=O)NCC(O)CO)c(I)c(C(=O)NCC(O)CO)c1I)c1c(I)c(C(=O)NCC(O)CO)c(I)c(C(=O)NCC(O)CO)c1I` (stereo not given) [Iodixanol], the ALDHbr was 0.941.

On to `CC(C)NC[C@@H](O)COc1ccc(CC(N)=O)cc1` [(R)-(+)-Atenolol], for which the ALDHbr was 0.981.

`O=C(CCCN1CCN(c2ccccn2)CC1)c1ccc(F)cc1` [Azaperone]: the ALDHbr was found to be 0.843.

Turning to `CC(=O)[C@@]1(O)CC[C@H]2[C@@H]3C[C@H](C)C4=CC(=O)C=C[C@]4(C)[C@@]3(F)[C@@H](O)C[C@@]21C` [Fluorometholone], the ALDHbr worked out at 0.558.

`CC(=O)N(O)CCCCCNC(=O)CCC(=O)N(O)CCCCCNC(=O)CCC(=O)N(O)CCCCCN` [Deferoxamine mesylate]: the ALDHbr amounted to 1.14.

Consider `COc1ccc2c(c1)C(=O)N(CCc1ccc(S(=O)(=O)NC(=O)NC3CCCCC3)cc1)C(=O)C2(C)C` [Gliquidone], for which the ALDHbr came to 0.983.

For the compound `CCOC(=O)C1=C(C)NC(C)=C(C(=O)OCC)C1c1ccccc1/C=C/C(=O)OC(C)(C)C` [Lacidipine], the ALDHbr worked out at 0.895.

In the case of `CCCCC[C@H](O)/C=C/[C@H]1[C@H](O)CC(=O)[C@@H]1CCCCCCC(=O)O` [Alprostadil], the ALDHbr came to 0.644.

Regarding `NC[C@@H]1O[C@@H](O[C@H]2[C@H](O)[C@@H](O[C@H]3O[C@H](CO)[C@@H](O)[C@H](N)[C@H]3O)[C@H](N)C[C@@H]2N)[C@@H](O)[C@H](O)[C@H]1O` [Kanamycin A sulfate], the ALDHbr came out at 0.958.

On to `O=C1CC[C@@H](C(=O)N2CSC[C@H]2C(=O)O)N1` [Pidotimod] (HELM PEPTIDE1{[Glp].[O=C(O)[C@@H]1CSCN1[*:1]]}$$$$V2.0), for which the ALDHbr is 0.917.

`CCCCC1C(=O)N(c2ccccc2)N(c2ccc(O)cc2)C1=O` (stereo not given) [Oxyphenbutazone]: the ALDHbr came out at 0.884.

With `CN(C)CCN1C(=O)c2ccccc2N(C)c2ccccc21` [Dibenzepine hydrochloride], the ALDHbr came out at 0.778.

Source of the values: the supplement of paper PMC11880418.
